# Some of the results follow. At the low end of the ranking the order means little.
# Molecular target: T1, GST-Rok (full length) (UniProt O34857)
# T1 sequence: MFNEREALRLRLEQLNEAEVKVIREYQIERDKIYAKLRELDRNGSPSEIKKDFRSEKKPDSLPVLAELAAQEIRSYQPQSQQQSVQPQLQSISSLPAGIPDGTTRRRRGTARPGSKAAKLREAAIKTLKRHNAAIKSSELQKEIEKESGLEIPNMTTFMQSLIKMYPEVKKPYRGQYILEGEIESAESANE
# Assay: protein binding microarray;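 further: rank score from −0.5 (least bound) to 0.5 (best bound)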
# Conditions: Rok is a gene silencer of Bacillus subtilis; high values mean tight binding; most listed sequences are background and not binding sites; double strand, one strand shown
row,Sequence,binding signal
1,CAAGATAA,0.0746 E-score
2,CTAGACCA,-0.172 E-score
3,ACCGCAAA,0.0214 E-score
4,ACATCAAG,0.00272 E-score
5,CCGAGTCA,-0.159 E-score
6,AACCTGTG,-0.123 E-score
7,GAAACGCA,-0.154 E-score
8,AGTGAGTA,0.0952 E-score
9,ACAGCGGT,-0.174 E-score
10,ATTCATGG,0.0276 E-score
11,AAGGTCAG,-0.0568 E-score
12,GCGCTTAC,-0.113 E-score
13,ACCCTCAT,0.00761 E-score
14,AGCTGCCG,-0.245 E-score
15,CCTGCTAG,-0.219 E-score
16,CATGCGCA,-0.235 E-score
17,ATCCTACG,-0.0168 E-score
18,CTTCAAAG,-0.242 E-score
19,GCAACAAA,0.153 E-score
20,TAGACACA,0.018 E-score
21,CTTTTCAA,-0.159 E-score
22,AAAGGTGC,-0.136 E-score
23,AAAACCGC,-0.232 E-score
24,GGGTGACA,-0.236 E-score
25,GGATCGTA,0.0948 E-score

row,Sequence,binding signal
1,AATTCGTC,0.17 E-score
2,CCTATCCG,-0.256 E-score
3,CAACTGGG,-0.201 E-score
4,AACGAATG,0.106 E-score
5,AGTAAGGG,-0.227 E-score
6,CAGTCACA,-0.0227 E-score
7,CCAACGTA,0.045 E-score
8,ATATAAAA,0.288 E-score
9,ATACAAGC,0.163 E-score
10,GCAGATGA,-0.0924 E-score
11,ACTGGAGA,-0.0659 E-score
12,AAGGTCTG,-0.177 E-score
13,CTTAAGCC,-0.275 E-score
14,CTCACAGA,-0.131 E-score
15,CCAACGAG,-0.125 E-score
16,ACAGAGAG,-0.123 E-score
17,GCGCCATA,-0.034 E-score
18,AATGCGCG,0.145 E-score
19,CGCACCAC,-0.117 E-score
20,CCATGCGA,-0.186 E-score
21,GTAAATGA,0.0501 E-score
22,ACCTTTGG,-0.212 E-score
23,ACACCCGC,-0.169 E-score
24,CGACAGAC,-0.0568 E-score
25,CTCCGTTC,-0.0616 E-score

row,Sequence,binding signal
1,CGGTGGAC,-0.199 E-score
2,CAGCAATC,0.037 E-score
3,CGTACGTA,0.148 E-score
4,GCCTGCCC,-0.341 E-score
5,GCATGTCA,-0.0408 E-score
6,CCTGAAGA,-0.0739 E-score
7,GCCTCAGC,-0.283 E-score
8,ACAGATTC,0.15 E-score
9,CAATCGCG,0.0351 E-score
10,AAGGGCCC,-0.428 E-score
11,CAACGTTG,0.174 E-score
12,CAATAAAG,0.029 E-score
13,AGGATTAG,0.158 E-score
14,ATACGGTG,0.0458 E-score
15,CCCCGGCC,-0.345 E-score
16,TGGCACCA,0.0347 E-score
17,CTCACACC,-0.0119 E-score
18,CGATTCAC,-0.012 E-score
19,AAAGTTAA,-0.107 E-score
20,GGAGCGAC,-0.265 E-score
21,TCCCGTAA,0.154 E-score
22,ATATTGCC,0.0852 E-score
23,ACAGTTCC,-0.0713 E-score
24,GCTTGACA,-0.211 E-score
25,AGAATTTA,0.26 E-score

row,Sequence,binding signal
1,CAGTAGAG,0.142 E-score
2,CTAATGGA,0.12 E-score
3,CTTAATTA,0.21 E-score
4,ATTCTGTG,0.219 E-score
5,ACCACCGG,-0.176 E-score
6,ACATTATA,0.325 E-score
7,CTTGTCCA,-0.152 E-score
8,CCTTACGA,-0.0248 E-score
9,CCGGCCGA,-0.105 E-score
10,GAGGCTGC,-0.367 E-score
11,ATACGCCG,-0.0298 E-score
12,CGGGTGTC,-0.11 E-score
13,CTATCCAG,0.12 E-score
14,ACGTCTCA,-0.157 E-score
15,AGTTGCGC,-0.0122 E-score
16,CTCGTCTC,-0.0848 E-score
17,ACTCTCCG,-0.144 E-score
18,CAATGCCA,-0.106 E-score
19,CTAGTTGA,0.226 E-score
20,TTCGTCAA,-0.0914 E-score
21,GAGCACGA,-0.315 E-score
22,CCCAAGAA,-0.178 E-score
23,TAAAGTAA,0.15 E-score
24,AGTATGCC,0.0544 E-score
25,AATACGAG,0.0931 E-score

row,Sequence,binding signal
1,CCTAAAGA,-0.0275 E-score
2,ACAAACAG,0.0829 E-score
3,CGTCGTTC,-0.0713 E-score
4,ACGTCTAG,0.115 E-score
5,GCGATAAC,0.0793 E-score
6,TCAGGGGA,-0.229 E-score
7,GCCTACAA,0.107 E-score
8,CTTCGTCA,-0.188 E-score
9,GGGCCTGA,-0.45 E-score
10,GTAGCTTA,0.191 E-score
11,CCTGCGCC,-0.204 E-score
12,GGAATTCC,-0.149 E-score
13,AGTAGTAC,0.336 E-score
14,GGGATAAC,-0.0138 E-score
15,GGTGAGGA,-0.18 E-score
16,GACGTGCA,0.00485 E-score
17,CCTTAAAA,-0.117 E-score
18,AAATATAG,0.317 E-score
19,ACGTCACT,0.101 E-score
20,ATAAATTG,0.336 E-score
21,CCGTACCA,-0.11 E-score
22,CGTACCTA,0.141 E-score
23,AGACACGA,-0.179 E-score
24,GGCGATGA,-0.211 E-score
25,CGGATGCA,-0.166 E-score

row,Sequence,binding signal
1,ATGGTTCA,-0.188 E-score
2,ATACGTGA,0.134 E-score
3,CATTGCGG,-0.227 E-score
4,TCAGACCA,-0.311 E-score
5,AATGTGAG,0.00555 E-score
6,AAAAAGAC,-0.196 E-score
7,CCTCCGTA,-0.309 E-score
8,TAGGGGGA,-0.225 E-score
9,CTATGTCA,0.225 E-score
10,ATACCCTG,0.0324 E-score
11,CGATCACG,-0.0922 E-score
12,ACTTATTA,0.239 E-score
13,AGACATTA,0.127 E-score
14,AGGAGCTA,0.0934 E-score
15,AACCAGAA,-0.0993 E-score
16,GACAGCTC,-0.321 E-score
17,ATAGAGAC,0.16 E-score
18,CTCTAGCA,-0.115 E-score
19,AGGAGCGA,-0.288 E-score
20,ACTCGCGG,-0.241 E-score
21,GCGTCGTA,0.0795 E-score
22,CCTTGCAA,-0.192 E-score
23,GCCATTAA,-0.0498 E-score
24,CGCTATGA,-0.00636 E-score
25,TAATCCAA,0.0614 E-score

row,Sequence,binding signal
1,ACATACGC,0.0615 E-score
2,CGAATGCC,-0.0357 E-score
3,TCGGGGCA,-0.161 E-score
4,GCATGGCA,-0.358 E-score
5,TTAACTAA,0.0239 E-score
6,ACGTTTTA,0.0828 E-score
7,CCCCACGC,-0.316 E-score
8,ACACGGTA,0.123 E-score
9,GCACCACC,-0.125 E-score
10,GTATATCA,0.208 E-score
11,AAGGATGC,-0.0733 E-score
12,GAACCAGC,-0.148 E-score
13,GTTGTTAA,0.124 E-score
14,GTTACAAA,0.098 E-score
15,AAATACCA,0.294 E-score
16,TAAAATCA,0.142 E-score
17,CCCCGCGC,-0.338 E-score
18,CATTCAGG,-0.0934 E-score
19,GCATCTAA,0.115 E-score
20,ATCGTATC,0.205 E-score
21,AAAGCAGC,-0.0291 E-score
22,CAAAGAGG,-0.12 E-score
23,AGCACCTG,-0.217 E-score
24,CCTCATCA,-0.214 E-score
25,CAGTAGTA,0.343 E-score

row,Sequence,binding signal
1,CCATACCG,-0.134 E-score
2,GTGCCCTA,-0.292 E-score
3,TATGTCCA,0.22 E-score
4,ATGGACGC,0.0454 E-score
5,AGGTAACA,-0.0294 E-score
6,CCATGAAA,-0.202 E-score
7,ACGGCCGA,-0.0071 E-score
8,GACTCTAA,-0.12 E-score
9,GTACCCTA,-0.0864 E-score
10,CGGACACC,-0.255 E-score
11,ATCACCAA,0.0503 E-score
12,CAAATGTG,0.0642 E-score
13,GATTTAAA,0.147 E-score
14,GGTTCAAA,-0.000705 E-score
15,GGGGACAA,-0.336 E-score
16,CCACCCCC,-0.382 E-score
17,AGCCACCT,-0.167 E-score
18,GCTCGACA,-0.325 E-score
19,CTTCCCAC,-0.188 E-score
20,GCTCGGAA,-0.175 E-score
21,ACCTCCCG,-0.124 E-score
22,CGCACGAG,-0.303 E-score
23,CGAACTAG,0.319 E-score
24,CTTCAGTC,-0.0906 E-score
25,AGGCAACC,0.0559 E-score

row,Sequence,binding signal
1,AAAACCGG,-0.126 E-score
2,ATTATACG,0.381 E-score
3,CGCGTGTA,0.187 E-score
4,CTTCCTTA,-0.172 E-score
5,GAGGGACC,-0.252 E-score
6,ACGAGAAC,-0.0723 E-score
7,AAGTAGAG,0.104 E-score
8,GTTATCCA,0.0676 E-score
9,CCCAATTC,-0.167 E-score
10,CTGTAGTA,0.243 E-score
11,ATGCCTAA,0.0616 E-score
12,ACACGGTG,-0.0829 E-score
13,ATTTGCTG,-0.00949 E-score
14,TATTTGAA,0.101 E-score
15,ACCCTGTG,-0.217 E-score
16,ACCGCTGA,-0.181 E-score
17,ACCTTCTA,0.21 E-score
18,TCAGGCGA,-0.137 E-score
19,CGAGAATA,0.206 E-score
